# Experimental data as given in the supplement of paper PMC12582362.
# Counter-ions that a name gives are not always drawn. Screen size: about 1,500 compounds; about 30 (2%) showed activity.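 Rule for the calls: active = robust z-score below -2; a few such results were not called.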 The list shows a part of the results.
# System: optoTopBP1 Flp-In 293 T-REx (HEK293) cells
# Assay: light-induced TopBP1 condensate (nuclear foci) count, plate-normalised robust z-score vs non-control wells; higher = more TopBP1 condensates (negative = condensation inhibitor), active = hit call of the paper
# Conditions: 10 µM; incubation time 2 h
row,SMILES,light-induced TopBP1 condensate (z-score)
1,CN(C)C(=O)Oc1cc(OC(=O)N(C)C)cc(C(O)CNC(C)(C)C)c1 (stereo not given) [Bambuterol hydrochloride],inactive: 0.59
2,CCn1cc(C(=O)O)c(=O)c2cc3c(cc21)OCO3 [Oxolinic acid],inactive: 0.396
3,C[C@]12CC[C@H](O)C[C@@H]1CC[C@@H]1[C@@H]2CC[C@]2(C)C(=O)CC[C@@H]12 [Epiandrosterone],inactive: -0.588
4,"NCC(O)c1ccc(O)cc1 (racemic) [(+,-)-Octopamine hydrochloride]",inactive: -1.15
5,CN1[C@@H]2CC[C@H]1C[C@@H](OC1c3ccccc3CCc3ccccc31)C2 [Deptropine citrate],inactive: -0.947
6,CCN[C@@H](C)Cc1cccc(C(F)(F)F)c1 [Dexfenfluramine hydrochloride],inactive: -1.62
7,CC(C)=CC1C(C(=O)OCc2cccc(Oc3ccccc3)c2)C1(C)C (stereo not given) [Phenothrin],inactive: -0.16
8,C[CH2][Hg][S]c1ccccc1C(=O)[O-].[Na+] [Thimerosal],active: -8.21
9,NC(=O)CN1CC(O)CC1=O (stereo not given) [Oxiracetam],inactive: -0.722
10,CC[C@H](C)[C@H]1O[C@]2(C=C[C@@H]1C)C[C@@H]1C[C@@H](C/C=C(\C)[C@@H](O[C@H]3C[C@H](OC)[C@@H](O[C@H]4C[C@H](OC)[C@@H](O)[C@H](C)O4)[C@H](C)O3)[C@@H](C)/C=C/C=C3\CO[C@@H]4[C@H](O)C(C)=C[C@@H](C(=O)O1)[C@]34O)O2.CO[C@H]1C[C@H](O[C@H]2[C@H](C)O[C@@H](O[C@@H]3/C(C)=C/C[C@@H]4C[C@@H](C[C@]5(C=C[C@H](C)[C@@H](C(C)C)O5)O4)OC(=O)[C@@H]4C=C(C)[C@@H](O)[C@H]5OC/C(=C\C=C\[C@@H]3C)[C@]54O)C[C@@H]2OC)O[C@@H](C)[C@@H]1O [Avermectin B1],inactive: 2.02
11,C[C@]12CCC(=O)C=C1CC[C@@H]1[C@@H]2C(=O)C[C@]2(C)C(=O)CC[C@@H]12 [Adrenosterone],inactive: -0.361
12,Nc1ccncc1 [Dalfampridine],inactive: 0.554
13,C[N+]1(C)CCOC(O)(c2ccc(-c3ccc(C4(O)C[N+](C)(C)CCO4)cc3)cc2)C1 (stereo not given) [Hemicholinium bromide],inactive: -0.655
14,CC[C@@H](C(N)=O)N1CCCC1=O [Levetiracetam],inactive: -0.9
15,COc1ccc(C(=O)N2CCCC2=O)cc1 [Aniracetam],inactive: -1.43
16,CCCN1C[C@H](CSC)C[C@@H]2c3cccc4[nH]cc(c34)C[C@H]21 [Pergolide mesylate],inactive: -0.94
17,COc1ccc(CCN)cc1OC [Homoveratrylamine],inactive: -1.31
18,"CC[C@@]1(O)C(=O)OCc2c1cc1n(c2=O)Cc2cc3ccccc3nc2-1 [Camptothecine (S,+)]",inactive: -1.28
19,N#Cc1nn(-c2c(Cl)cc(C(F)(F)F)cc2Cl)c(N)c1[S+]([O-])C(F)(F)F (stereo not given) [Fipronil],inactive: -0.169
20,CCC(=O)O[C@@](Cc1ccccc1)(c1ccccc1)[C@@H](C)CN(C)C [Levopropoxyphene napsylate],inactive: 0.58

row,SMILES,light-induced TopBP1 condensate (z-score)
1,C[N+](C)(C)CCCCCCCCCC[N+](C)(C)C [Decamethonium bromide],inactive: 0.408
2,C[N+]1(C)[C@@H]2CC[C@H]1C[C@@H](OC(=O)C(CO)c1ccccc1)C2 (stereo not given in full) [Methylatropine nitrate],inactive: -0.568
3,CN1C[C@H](C(=O)N[C@]2(C)O[C@@]3(O)[C@@H]4CCCN4C(=O)[C@H](Cc4ccccc4)N3C2=O)C[C@@H]2c3cccc4[nH]cc(c34)C[C@H]21 [Dihydroergotamine tartrate],inactive: 1.14
4,CC(=O)OC1CN2CCC1CC2 (stereo not given) [Aceclidine Hydrochloride],inactive: -1.46
5,COc1cccc(C2(O)CCCCC2CN(C)C)c1 (stereo not given) [Tramadol hydrochloride],inactive: 0.893
6,CCCOC(=O)Cc1ccc(OCC(=O)N(CC)CC)c(OC)c1 [Propanidid],inactive: 1.18
7,CC(CCc1ccccc1)NC(C)C(O)c1ccc(O)cc1 (stereo not given) [Nylidrin],inactive: 0.555
8,CC(C)N(CCC(C(N)=O)(c1ccccc1)c1ccccn1)C(C)C (stereo not given) [Disopyramide],inactive: -1.22
9,C[C@H](N)[C@H](O)c1ccc(O)c(O)c1 [Levonordefrin],inactive: 1.85
10,O=[N+]([O-])O[C@@H]1CO[C@H]2[C@@H]1OC[C@@H]2O [Isosorbide mononitrate],inactive: 0.806
11,CN[C@@H]1C[C@@H](c2ccc(Cl)c(Cl)c2)c2ccccc21 [Indatraline hydrochloride],inactive: -1.65
12,Nc1nc(N)nc(NC2CC2)n1 [Cyromazine],inactive: -0.353
13,CN1[C@@H]2CC[C@H]1C[C@@H](OC(=O)[C@H](CO)c1ccccc1)C2 [Hyoscyamine (L)],inactive: 0.214
14,C=CC[C@]1(O)CC[C@H]2[C@@H]3CCC4=CCCC[C@@H]4[C@H]3CC[C@@]21C [Allylestrenol],inactive: 1.27
15,C=C[C@H]1CN2CC[C@H]1C[C@H]2[C@H](OC(=O)OCC)c1ccnc2ccc(OC)cc12 [Quinine ethyl carbonate],inactive: -0.776
16,C[C@]12C=CC(=O)C=C1CC[C@@H]1[C@@H]2CC[C@@]2(C)[C@H]1CC[C@]2(C)O [Methandrostenolone],inactive: 0.27
17,C[C@]12CC[C@H]3[C@@H](CCC4=CC(=O)CC[C@@H]43)[C@@H]1CC[C@@H]2O [Nandrolone],inactive: 2.28
18,COc1ccc(CN2CCNCC2)c(OC)c1OC [Trimetazidine dihydrochloride],inactive: -0.0207
19,CC(C)CC(N(C)C)C1(c2ccc(Cl)cc2)CCC1 (stereo not given) [Sibutramine hydrochloride],inactive: 0.721
20,O=C([O-])c1ccccc1-c1c2cc(Br)c(=O)cc-2oc2[c]([Hg+])c([O-])c(Br)cc12.[Na+].[Na+].[OH-] [Merbromin],inactive: -0.221

row,SMILES,light-induced TopBP1 condensate (z-score)
1,O=c1[nH]c2ccccc2n1CCCN1CCC(n2c(=O)[nH]c3cc(Cl)ccc32)CC1 [Domperidone],inactive: 0.475
2,C#C[C@]1(O)CC[C@H]2[C@@H]3CCC4=CC(=O)CC[C@]4(C)[C@H]3CC[C@@]21C [Ethisterone],inactive: -0.177
3,CC(C)[N+](C)(CCC(C(N)=O)(c1ccccc1)c1ccccc1)C(C)C [Isopropamide iodide],inactive: -0.129
4,S=C(NC1CCCCC1)N1CCC(c2cnc[nH]2)CC1 [Thioperamide maleate],inactive: -0.965
5,CCN(CC)C(=O)N[C@H]1C=C2c3cccc4[nH]cc(c34)C[C@H]2N(C)C1 [Lisuride (S)(-)],inactive: -1.23
6,COc1ccc2c(c1)[C@]13CCCC[C@@H]1[C@H](C2)N(C)CC3 [Dextromethorphan hydrobromide monohydrate],inactive: 0.251
7,"CNCC(O)c1ccc(O)cc1 (racemic) [(+,-)-Synephrine]",inactive: 0.598
8,C[C@]12CC[C@@H](O)C[C@@H]1CC[C@@H]1[C@@H]2CC[C@]2(C)C(=O)CC[C@@H]12 [Androsterone],inactive: 0.981
9,C=CC[C@]1(O)CC[C@H]2[C@@H]3CCC4=CC(=O)CCC4=C3C=C[C@@]21C [Altrenogest],inactive: 0.00418
10,C1CCc2nnnn2CC1 [Pentylenetetrazole],inactive: 0.48
11,CC(Cc1ccc(O)cc1)NCC(O)c1cc(O)cc(O)c1 (stereo not given) [Fenoterol hydrobromide],inactive: -0.538
12,CN1[C@@H]2C[C@@H](OC(=O)[C@H](CO)c3ccccc3)C[C@H]1[C@@H]1O[C@@H]12 [Scopolamine hydrochloride],inactive: -0.28
13,C#C[C@]1(O)CC[C@H]2[C@@H]3CCC4=CC(=O)CCC4=C3C=C[C@@]21CC [Gestrinone],inactive: 0.545
14,N[C@@H]1C[C@H]1c1ccccc1 [Tranylcypromine hydrochloride],inactive: -0.501
15,"NCC(CC(=O)O)c1ccc(Cl)cc1 (racemic) [Baclofen (R,S)]",inactive: 0.141
16,CN[C@@H]1[C@@H](O)[C@@H](O[C@@H]2[C@@H](O)[C@H](O[C@H]3O[C@H](CN)CC[C@H]3N)[C@@H](N)C[C@H]2N)OC[C@]1(C)O.CN[C@@H]1[C@@H](O)[C@@H](O[C@@H]2[C@@H](O)[C@H](O[C@H]3O[C@H]([C@@H](C)N)CC[C@H]3N)[C@@H](N)C[C@H]2N)OC[C@]1(C)O.CN[C@@H]1[C@@H](O)[C@@H](O[C@@H]2[C@@H](O)[C@H](O[C@H]3O[C@H]([C@@H](C)NC)CC[C@H]3N)[C@@H](N)C[C@H]2N)OC[C@]1(C)O [Gentamicine sulfate],inactive: 0.287
17,CN1CCN(C(=O)O[C@H]2c3nccnc3C(=O)N2c2ccc(Cl)cn2)CC1 [Eszopiclone],inactive: -0.263
18,O=C1CC[C@@]2(O)[C@H]3Cc4ccc(O)c5c4[C@@]2(CCN3CC2CC2)[C@H]1O5 [Naltrexone hydrochloride dihydrate],inactive: -0.0285
19,"CN1CCC2(C)c3cc(O)ccc3N(C)C12 (single isomer, unassigned; (-)) [(-)-Eseroline fumarate salt]",inactive: 0.423
20,CC(NC(C)(C)C)C(=O)c1cccc(Cl)c1 (stereo not given) [Bupropion hydrochloride],inactive: -0.842
